The whole screen tested about 48,000 compounds, of which about 120 (0.25%) were called active. Not shown: some 4% with an inconclusive outcome. The call rests on the fitted dose curve; in most records, active means well fitted activation curve with a large enough effect; inconclusive means small, poorly fitted or top-dose-only effect, or another doubt; inactive means no such curve, though single readings can be large or run the other way. The list shows a part of the results.
Test: Primary qHTS for Identification of Small Molecule Activators of Huntingtin-Antisense Promoter Activity; further: nearly all actives have a fitted effect of over 55% in size
Conditions: HEK293 HTT-AS promoter firefly luciferase reporter, 24 h; series mostly up to 57.5 µM; activity change, positive = activation: at the top concentration
Summary of the method: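 HEK293 luciferase promoter-reporter cells (2,500/well) plated 24 h, then compounds added at up to 57.5 uM final for 24 h at 37 °C. Firefly luminescence by Dual-Glo, normalized to vehicle (0%) and zero RLU (-100%).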

Activity change, positive = activation, inactive:
C[C@@H]1CCO[C@H]2Cn3cc(C(=O)NCc4ccc(F)cc4F)c(=O)c(O)c3C(=O)N12 21.5%
Cc1cc(NC(=O)c2cccs2)cc(-c2nc3cc(Cl)ccc3o2)c1O -1.14%
CCn1cc2nc(SCC(=O)Nc3ccc(C)cc3C)n(Cc3ccc(C)cc3)c(=O)c2n1 -34.7%
CCC(=O)NCc1cc(-c2nn(C)c(=O)c3ccccc23)ccc1OC 0.351%
CC1CCCCN1C(=O)Cn1c(SCC(=O)N(C)c2ccccc2)nc2ccccc21 (stereo unspecified) 0.897%
CCn1cc(CNC(=O)c2cc(-c3ccc(C)c(C)c3)nc3ccccc23)c(C)n1 -17.4%
Cc1ccc(NC(=O)c2ccc(=O)n(CC(=O)Nc3cccc(C)c3)n2)cc1 -11.7%
O=C(C1CCCCC1)N1CC(=O)N2CCc3ccccc3C2C1 (stereo unspecified)
CCOc1ccccc1CNS(=O)(=O)c1ccc(-c2coc(C)n2)cc1 -33.5%
Cc1cccc(C(c2sc3nc(-c4ccco4)nn3c2O)N2CCN(c3ccccc3)CC2)c1 (stereo unspecified) -6.89%
COC(=O)c1ccccc1NC(=O)c1cc2nc(-c3ccc(OC)cc3)cc(C(F)(F)F)n2n1 -11.9%
Cc1ccc(NC(=O)c2ccc(NC(=O)N3CCSc4nc(C)cc(C)c43)cc2)c(Cl)c1 -25.5%
O=C(Cn1nc2c(cc1=O)CCCC2)Nc1ccccc1C(F)(F)F -8.1%
O=C(CSc1nc2c(oc3ccccc32)c(=O)n1-c1ccccc1F)Nc1ccccc1 -22.4%
OC[C@H]1O[C@H](O[C@]2(CCl)O[C@H](CCl)[C@@H](O)[C@@H]2O)[C@H](O)[C@@H](O)[C@H]1Cl 2.76%
Cc1ccc(CN2CCSc3ccc(C(=O)N4CCN(c5cc(C)ccc5C)CC4)cc32)cc1 -25.9%
CCOC(=O)c1c(S(=O)(=O)N2CCCC(C(=O)N3CCN(c4cccc(C)c4C)CC3)C2)c(C)n(C)c1C (stereo unspecified) -21.8%
CNC(=O)c1cc(Oc2ccc(NC(=O)Nc3cc(C(C)(C)C)nn3-c3ccc4ncccc4c3)c(F)c2)ccn1 -25%
CC(C)CN1CCc2nc(N3CCN(C)CC3)ncc2C1 -5.94%
Cn1c(=O)cc(SCC(=O)N2CCN(c3ccc(F)cc3)CC2)c2ccc(Cl)cc21 18.2%
Cc1ccc(Nc2c3c(nc4nncn24)CCC3)cc1C -15.3%
O=C(CN1C(=O)COc2ccc(S(=O)(=O)N3CCOCC3)cc21)NCc1ccc(F)cc1 3.89%
CCOc1cc(S(=O)(=O)n2ccnc2C(C)C)ccc1Cl -10.1%
Cc1ccccc1NC(=O)CCn1cnc2onc(-c3ccc(F)cc3)c2c1=O -37.2%
CCC(C)(C)C1CCc2c(sc(NC(=O)C3c4ccccc4Oc4ccccc43)c2C(N)=O)C1 (stereo unspecified) -19.6%
O=S(=O)(c1ccccc1)c1nc(-c2cccs2)oc1SCc1ccccc1F -2.96%
Cc1ccc(C)c(N2CCN(CCCNC(=O)Cn3ncc4c5ccccc5n(C)c4c3=O)CC2)c1 -25.7%
CCCCC(CC)CNC(=O)C1CCN(S(=O)(=O)c2cccc3nsnc23)CC1 (stereo unspecified) -18%
O=C(O)[C@@H](O)[C@H](O)[C@H](O)[C@@H](O)C(=O)O -7.04%
Cc1ccc(NS(=O)(=O)c2c(C(=O)N3CCC(C)CC3)c(C)n(C)c2C)cc1Cl -23.3%
N#Cc1nc(-c2ccc(COc3ccc(Cl)cc3)o2)oc1N1CCN(c2ccccc2)CC1 -15.4%
CCOc1ccc(NC(=O)CCn2cnc3onc(-c4ccc(F)cc4)c3c2=O)cc1 -14%
Cc1cccc(C)c1NC(=O)Cn1c(=O)n(CC2CCC(C(=O)NCCc3ccccc3)CC2)c(=O)c2ccccc21 (stereo unspecified) -9.95%
CCOC(=O)c1noc2ncnc(Nc3ccc(F)cc3F)c12 -5.17%
CCOC(=O)C1CCN(C(=O)C2CCN(C3=NS(=O)(=O)C(c4ccc(C)cc4)=C3CC)CC2)CC1 -25.6%
O=[N+]([O-])c1cc(-c2nc(-c3ccccc3)no2)ccc1N1CCN(c2ccccc2)CC1 -4.99%
Cc1ccc(CNC(=O)C2CCN(c3nc4ccccc4n(C)c3=O)CC2)cc1 -0.148%
CCOC(=O)CSc1nc2c(sc3ccccc32)c(=O)n1CCc1ccccc1 1.05%
Cn1cc(S(=O)(=O)N2CCCCCC2)cc1C(=O)N1CCN(c2cccc(Cl)c2)CC1 -37.7%
Cc1ccc(NC(=O)Cn2nnc(-c3nc(-c4ccncc4)no3)c2N)cc1 -0.267%
CCCOc1ccc(CNC(=O)C(CC)n2nc(C)c3sc4ccccc4c3c2=O)cc1 (stereo unspecified) -14.7%
CCOc1ccc2nc(C)cc(Nc3ccccc3OCC)c2c1 2.37%
Cc1ccc(Cl)cc1N1CCN(C(=O)CCC(=O)Nc2ccc3nc(N4CCC(C)CC4)cc(C)c3c2)CC1 -13.4%
CC(C)C[C@H](NC(=O)[C@@H](NC(=O)c1cccc(-c2ccccc2)n1)[C@@H](C)O)B(O)O -46.1%
CCOC(=O)c1c(C)oc2nc(C)nc(NCc3ccc(Cl)cc3)c12 -4.79%
COc1ccc(-c2cc3ccc(O)c(CN4CCOCC4)c3oc2=O)cc1 9.34%
CC(=O)N1CCc2cc(Br)cc(S(=O)(=O)N3CCC(C(=O)N(C)c4cc(C)ccc4C)CC3)c21 3.99%
Cc1cccc(NC(=O)c2nc(S(C)(=O)=O)ncc2Cl)c1 -96.7%
COc1cc(NC(=O)c2ccccc2)ccc1NC(=O)c1cc2ccccc2o1 -8.55%
Cc1cccc(NC(=O)CSc2nc(-c3ccco3)nc3cc(=O)[nH]n23)c1 -18.2%
COc1ccc(-c2ccc3c(N)c(C(=O)NCc4ccc(Cl)cc4)sc3n2)cc1 -3.68%
COC(=O)c1c(SC)nc2ccccc2c1OCc1ccccc1C -13.2%
O=C(CCn1c(=O)c2ccccc2n(Cc2ccc(F)cc2Cl)c1=O)NCc1ccc2c(c1)OCO2 -5.79%
CCc1ccc(NC(=O)C2CCN(S(=O)(=O)c3ccc4[nH]c5c(c4c3)CCCCC5)CC2)cc1 -24.1%
Nc1nc2ccc(OC(F)(F)F)cc2s1
Oc1cc(O)c2c(c1)O[C@H](c1ccc(O)c(O)c1)[C@H](O)C2 1.9%
Cc1cccc(OCC(=O)OCc2cc(=O)n3nc(C4CCCCC4)sc3n2)c1 2.23%
COc1ccc(C(=O)COC(=O)c2cccc(NC(=O)c3ccc(OC)c(OC)c3)c2)cc1 -14.2%
CCOC(=O)C(CC)n1nc(C)n2c(cc3occc32)c1=O (stereo unspecified) -15.1%
COc1ccc(C(=O)c2cn(Cc3ccc(F)cc3)c3ccc(C)cc3c2=O)cc1 -13.6%
CN1CCC(=C2c3ccccc3CCc3cccnc32)CC1 -2.75%
COc1ccnc2c1CCCCC2S(=O)c1nc2ccccc2[nH]1 (stereo unspecified) 0.921%
Cc1ccc(-c2nc3ccccn3c2Nc2ccc3c(c2)OCO3)cc1 -1.87%
Cc1csc2nc(-c3cccc(NC(=O)c4ccccc4Cl)c3)cn12 1.47%
Cc1ccc(S(=O)(=O)NCC(c2ccc(N(C)C)cc2)N2CCOCC2)cc1 (stereo unspecified) -23.1%
O=C(NC1CCCCCC1)C1CCN(C(=O)N2CCOc3ccccc32)CC1 11.4%
COCCNC(=O)c1c(C)oc2nc(C)nc(N3CCOCC3)c12 -0.264%
COc1ccc(C2c3c(-c4c(C)cc(C)cc4O)n[nH]c3C(=O)N2Cc2ccco2)cc1 (stereo unspecified) -40%
CCOC(=O)c1c(NC(=O)c2ccccc2Cl)sc2c1CCCC2 -5.67%
O=C(NCCCN1CCN(c2ccc(F)cc2)CC1)Nc1ccc(Cl)cc1 -25.6%
COc1cccc(-c2nc(CS(=O)(=O)CC(=O)NCc3ccc(C)cc3)c(C)o2)c1 -8.43%
COc1ccc2c(c1)c(CC(=O)O)c(C)n2C(=O)c1ccc(Cl)cc1
Cc1ccc(CN2C(=O)C(O)(c3c[nH]c4ccccc34)c3cc(Cl)ccc32)cc1 (stereo unspecified) -27.6%
Cc1ccc2c(c1)NC(c1cccnc1)=NC(c1ccc(F)cc1)=N2 1.27%
CCOC(=O)c1c(-c2ccc(C)cc2)csc1NC(=O)c1nc(SCC)ncc1Cl 23.5%
Cc1ccc(-n2c(=O)c3ccc(C(=O)NCc4ccccc4Cl)cc3n(Cc3ccccc3F)c2=O)cc1 -13.4%
COc1cccc(NS(=O)(=O)c2ccc3[nH]cc(C(=O)N4CCCCCC4)c(=O)c3c2)c1 -1.07%
CC1CCN(CCCNC(=O)c2cc(Sc3ccc(F)cc3)nc3ccccc23)CC1 -25.1%
CCc1ccc(CN(Cc2cn[nH]c2-c2ccc(OC)cc2)C(=O)Nc2ccc(C)c(F)c2)cc1 -20.6%
O=C(NC1CC(=O)N(c2cccc(F)c2)C1)C1CC1 (stereo unspecified) -3.9%
Cc1ccc(NC(=O)c2oc3ccccc3c2NC(=O)c2ccccc2C)cc1 -5.25%
COc1ccc(Cn2c(=O)c3cccnc3n(Cc3cccc(OC)c3)c2=O)cc1 -30.4%
O=c1c2cc3c(cc2nc2sc(Nc4ccc(F)c(Cl)c4)nn12)OCO3 -2.37%
COc1cc(OC)c(N(C)C(=O)Cn2ncc3c([nH]c4ccccc43)c2=O)cc1Cl -26.1%
Cc1nc(C)c(-c2ccc(SCC(=O)Nc3ccc(F)c(F)c3)nn2)s1 -32.8%
Cc1ccc(NC(=O)c2cc(S(=O)(=O)N3CCCC(C)C3)cn2C)c(Br)c1 (stereo unspecified) -37.9%
Cn1c(=O)c2c(-c3cccc(Br)c3)n(CCO)cc2n(C)c1=O -16.8%
CCN1CCN(c2oc(/C=C/c3ccccc3OC)nc2C#N)CC1 -7.15%
CCOC(=O)N1CCC(NC(=O)c2ccc3c(c2)N(Cc2ccc(F)cc2)C(=O)c2ccccc2S3(=O)=O)CC1 -39.5%
Cc1ccc(CNC(=O)c2ccc3c(O)c(S(=O)(=O)c4ccccc4)c(=O)[nH]c3c2)cc1 -5.83%
CCCCC(CC)COC(=O)c1ccccc1C(=O)O (stereo unspecified) -20.5% [at 116 µM, percent change from vehicle, -100% = no light]
CCOc1ccc(NC(=O)C(NS(=O)(=O)c2ccc3c(c2)CCN3C(C)=O)C(C)C)cc1 (stereo unspecified) -2.87%
CCOc1ccccc1NC(=O)c1nnn(CC(=O)Nc2ccc(OC)c(OC)c2)c1N -15.4%
O=C(CSc1nc2ccccc2nc1Cc1ccc(Cl)cc1)NCCc1ccccc1 -12.9%
Cn1nc(C(=O)NCc2ccc(Cl)cc2)c2c1-c1ccccc1SC2 -2.43%
Cc1ccc(N(Cc2cccs2)C(=O)c2ccc(Br)o2)cc1 -24.7%

From PubChem BioAssay AID1508624 (National Center for Advancing Translational Sciences (NCATS), 2021)
